Source: paper PMC10218450
Results are given in words; binding and its absence hold for the method and conditions named. In cells and extracts the contact can be indirect. Some binding calls cover weakened binding; strength is not graded here. For some assays here: Where a sequence is shown, tags or fusion partners need not be part of it.

What was measured:
[1] = biological target: T1, GST-tagged PGM (residues 316-623) domain of UBASH3A (human) (UniProt P57075); assay: pull-down; GST or GST-tagged UBASH3A domains at the same molar concentration on Glutathione Sepharose 4B with 1 mg precleared lysate of unstimulated Jurkat cells, 2 h at 4 °C, four washes with EBC lysis buffer; blot with anti-PTPN22; only the target purified
T1 sequence: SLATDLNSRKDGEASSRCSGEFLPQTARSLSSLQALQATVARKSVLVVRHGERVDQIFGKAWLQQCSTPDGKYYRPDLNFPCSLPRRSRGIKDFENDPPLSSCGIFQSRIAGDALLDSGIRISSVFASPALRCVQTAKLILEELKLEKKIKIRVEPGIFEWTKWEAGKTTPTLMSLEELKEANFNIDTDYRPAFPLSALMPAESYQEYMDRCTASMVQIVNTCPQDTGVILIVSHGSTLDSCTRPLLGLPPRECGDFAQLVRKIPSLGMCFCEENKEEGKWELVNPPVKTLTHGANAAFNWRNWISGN

[2] = biological target: T2, GST-tagged SH3 (residues 241-300) domain of UBASH3A (human) (UniProt P57075); assay: as above
T2 sequence: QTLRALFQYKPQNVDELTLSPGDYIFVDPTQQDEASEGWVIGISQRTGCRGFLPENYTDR

[3] = biological target: T3, GST-tagged UBA (residues 20-60) domain of UBASH3A (human) (UniProt P57075); assay: as above
T3 sequence: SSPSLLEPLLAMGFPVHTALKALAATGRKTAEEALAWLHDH

[4] = biological target: T4, UBASH3A (human (endogenous in Jurkat)) (UniProt P57075); assay: co-IP; Jurkat whole-cell lysate (EBC lysis buffer: 50 mM Tris-HCl pH 7.5, 120 mM NaCl, 0.5% NP-40, 1 mM EDTA) immunoprecipitated with anti-UBASH3A or IgG, 4 h or overnight at 4 °C, Protein G Dynabeads; blot with anti-PTPN22
T4 sequence: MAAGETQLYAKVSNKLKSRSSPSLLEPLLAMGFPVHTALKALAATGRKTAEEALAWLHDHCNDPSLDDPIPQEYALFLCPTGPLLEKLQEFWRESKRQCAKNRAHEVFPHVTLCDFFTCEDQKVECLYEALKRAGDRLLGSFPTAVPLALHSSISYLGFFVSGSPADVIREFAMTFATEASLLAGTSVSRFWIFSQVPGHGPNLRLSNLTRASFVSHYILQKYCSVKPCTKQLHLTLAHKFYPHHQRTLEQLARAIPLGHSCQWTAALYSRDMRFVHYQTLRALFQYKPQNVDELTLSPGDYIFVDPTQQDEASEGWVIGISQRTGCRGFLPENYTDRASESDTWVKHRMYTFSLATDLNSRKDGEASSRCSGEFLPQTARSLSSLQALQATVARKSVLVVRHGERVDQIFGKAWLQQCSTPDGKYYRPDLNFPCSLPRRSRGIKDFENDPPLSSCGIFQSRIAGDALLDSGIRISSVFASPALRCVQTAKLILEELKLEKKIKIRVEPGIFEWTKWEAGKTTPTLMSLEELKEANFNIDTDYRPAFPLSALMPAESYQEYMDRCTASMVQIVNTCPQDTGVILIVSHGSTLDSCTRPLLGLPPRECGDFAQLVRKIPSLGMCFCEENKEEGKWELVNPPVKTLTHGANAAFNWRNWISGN

[5] = biological target: T5, V5-tagged wild-type UBASH3A (human) (UniProt P57075); assay: co-IP; HEK293T co-transfected with FLAG-tagged PTPN22 and V5-tagged UBASH3A; lysates immunoprecipitated with anti-V5, Protein G Dynabeads, 4 °C; blot with anti-FLAG
T5 sequence: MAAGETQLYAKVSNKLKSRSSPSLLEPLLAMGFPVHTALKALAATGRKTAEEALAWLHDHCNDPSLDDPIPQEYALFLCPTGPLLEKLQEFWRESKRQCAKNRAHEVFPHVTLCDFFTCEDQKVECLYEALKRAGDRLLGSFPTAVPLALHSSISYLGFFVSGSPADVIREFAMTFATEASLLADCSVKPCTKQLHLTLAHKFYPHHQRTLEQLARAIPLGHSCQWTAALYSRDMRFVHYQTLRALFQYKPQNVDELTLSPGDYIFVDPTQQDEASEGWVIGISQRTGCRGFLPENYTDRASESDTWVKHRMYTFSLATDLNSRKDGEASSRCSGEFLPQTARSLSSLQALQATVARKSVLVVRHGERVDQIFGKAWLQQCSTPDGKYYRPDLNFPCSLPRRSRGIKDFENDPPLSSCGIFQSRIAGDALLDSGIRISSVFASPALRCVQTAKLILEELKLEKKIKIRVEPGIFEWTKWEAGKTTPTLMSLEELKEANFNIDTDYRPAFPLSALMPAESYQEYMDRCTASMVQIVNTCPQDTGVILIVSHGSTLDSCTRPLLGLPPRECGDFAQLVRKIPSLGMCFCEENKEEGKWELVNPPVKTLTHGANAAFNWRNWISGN

[6] = biological target: T6, V5-tagged W279A UBASH3A (human) (UniProt P57075); assay: as above
T6 sequence: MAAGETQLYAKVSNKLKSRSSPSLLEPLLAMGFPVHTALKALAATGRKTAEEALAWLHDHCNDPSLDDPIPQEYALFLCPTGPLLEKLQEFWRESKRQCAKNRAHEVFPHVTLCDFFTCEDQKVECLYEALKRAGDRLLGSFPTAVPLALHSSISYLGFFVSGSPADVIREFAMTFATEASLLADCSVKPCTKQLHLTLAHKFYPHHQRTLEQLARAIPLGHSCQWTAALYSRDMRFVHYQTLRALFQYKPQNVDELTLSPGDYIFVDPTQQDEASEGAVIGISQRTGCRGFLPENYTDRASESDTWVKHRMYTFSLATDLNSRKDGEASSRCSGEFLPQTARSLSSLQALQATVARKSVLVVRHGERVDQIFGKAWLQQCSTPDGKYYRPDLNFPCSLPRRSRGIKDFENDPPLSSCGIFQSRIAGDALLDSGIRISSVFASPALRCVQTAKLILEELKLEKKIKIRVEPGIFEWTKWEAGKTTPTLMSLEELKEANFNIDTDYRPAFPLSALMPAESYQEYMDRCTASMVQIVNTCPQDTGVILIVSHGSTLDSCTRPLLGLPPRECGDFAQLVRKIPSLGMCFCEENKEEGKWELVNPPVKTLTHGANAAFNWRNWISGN

B1: PTPN22 (protein, UniProt Q9Y2R2 1-807)
chain: MDQREILQKFLDEAQSKKITKEEFANEFLKLKRQSTKYKADKTYPTTVAEKPKNIKKNRYKDILPYDYSRVELSLITSDEDSSYINANFIKGVYGPKAYIATQGPLSTTLLDFWRMIWEYSVLIIVMACMEYEMGKKKCERYWAEPGEMQLEFGPFSVSCEAEKRKSDYIIRTLKVKFNSETRTIYQFHYKNWPDHDVPSSIDPILELIWDVRCYQEDDSVPICIHCSAGCGRTGVICAIDYTWMLLKDGIIPENFSVFSLIREMRTQRPSLVQTQEQYELVYNAVLELFKRQMDVIRDKHSGTESQAKHCIPEKNHTLQADSYSPNLPKSTTKAAKMMNQQRTKMEIKESSSFDFRTSEISAKEELVLHPAKSSTSFDFLELNYSFDKNADTTMKWQTKAFPIVGEPLQKHQSLDLGSLLFEGCSNSKPVNAAGRYFNSKVPITRTKSTPFELIQQRETKEVDSKENFSYLESQPHDSCFVEMQAQKVMHVSSAELNYSLPYDSKHQIRNASNVKHHDSSALGVYSYIPLVENPYFSSWPPSGTSSKMSLDLPEKQDGTVFPSSLLPTSSTSLFSYYNSHDSLSLNSPTNISSLLNQESAVLATAPRIDDEIPPPLPVRTPESFIVVEEAGEFSPNVPKSLSSAVKVKIGTSLEWGGTSEPKKFDDSVILRPSKSVKLRSPKSELHQDRSSPPPPLPERTLESFFLADEDCMQAQSIETYSTSYPDTMENSTSSKQTLKTPGKSFTRSKSLKILRNMKKSICNSCPPNKPAESVQSNNSSSFLNFGFANRFSKPKGPRNPPPTWNI
With B1 the binding [1] was “no binding (tested: 22.9 mg of GST-tagged PGM)”, the binding [2] was “binds” and the binding [3] was “no binding (tested: 11.6 mg of GST-tagged UBA)”. For the same binder, the binding [4] was “binds”.

B2: FLAG-tagged wild-type PTPN22 (protein, UniProt Q9Y2R2 1-807)
chain: MDQREILQKFLDEAQSKKITKEEFANEFLKLKRQSTKYKADKTYPTTVAEKPKNIKKNRYKDILPYDYSRVELSLITSDEDSSYINANFIKGVYGPKAYIATQGPLSTTLLDFWRMIWEYSVLIIVMACMEYEMGKKKCERYWAEPGEMQLEFGPFSVSCEAEKRKSDYIIRTLKVKFNSETRTIYQFHYKNWPDHDVPSSIDPILELIWDVRCYQEDDSVPICIHCSAGCGRTGVICAIDYTWMLLKDGIIPENFSVFSLIREMRTQRPSLVQTQEQYELVYNAVLELFKRQMDVIRDKHSGTESQAKHCIPEKNHTLQADSYSPNLPKSTTKAAKMMNQQRTKMEIKESSSFDFRTSEISAKEELVLHPAKSSTSFDFLELNYSFDKNADTTMKWQTKAFPIVGEPLQKHQSLDLGSLLFEGCSNSKPVNAAGRYFNSKVPITRTKSTPFELIQQRETKEVDSKENFSYLESQPHDSCFVEMQAQKVMHVSSAELNYSLPYDSKHQIRNASNVKHHDSSALGVYSYIPLVENPYFSSWPPSGTSSKMSLDLPEKQDGTVFPSSLLPTSSTSLFSYYNSHDSLSLNSPTNISSLLNQESAVLATAPRIDDEIPPPLPVRTPESFIVVEEAGEFSPNVPKSLSSAVKVKIGTSLEWGGTSEPKKFDDSVILRPSKSVKLRSPKSELHQDRSSPPPPLPERTLESFFLADEDCMQAQSIETYSTSYPDTMENSTSSKQTLKTPGKSFTRSKSLKILRNMKKSICNSCPPNKPAESVQSNNSSSFLNFGFANRFSKPKGPRNPPPTWNI
With B2 the binding [5] was “binds” and the binding [6] was “binds”.

B3: FLAG-tagged R620W PTPN22 (protein, UniProt Q9Y2R2 1-807)
chain: MDQREILQKFLDEAQSKKITKEEFANEFLKLKRQSTKYKADKTYPTTVAEKPKNIKKNRYKDILPYDYSRVELSLITSDEDSSYINANFIKGVYGPKAYIATQGPLSTTLLDFWRMIWEYSVLIIVMACMEYEMGKKKCERYWAEPGEMQLEFGPFSVSCEAEKRKSDYIIRTLKVKFNSETRTIYQFHYKNWPDHDVPSSIDPILELIWDVRCYQEDDSVPICIHCSAGCGRTGVICAIDYTWMLLKDGIIPENFSVFSLIREMRTQRPSLVQTQEQYELVYNAVLELFKRQMDVIRDKHSGTESQAKHCIPEKNHTLQADSYSPNLPKSTTKAAKMMNQQRTKMEIKESSSFDFRTSEISAKEELVLHPAKSSTSFDFLELNYSFDKNADTTMKWQTKAFPIVGEPLQKHQSLDLGSLLFEGCSNSKPVNAAGRYFNSKVPITRTKSTPFELIQQRETKEVDSKENFSYLESQPHDSCFVEMQAQKVMHVSSAELNYSLPYDSKHQIRNASNVKHHDSSALGVYSYIPLVENPYFSSWPPSGTSSKMSLDLPEKQDGTVFPSSLLPTSSTSLFSYYNSHDSLSLNSPTNISSLLNQESAVLATAPRIDDEIPPPLPVWTPESFIVVEEAGEFSPNVPKSLSSAVKVKIGTSLEWGGTSEPKKFDDSVILRPSKSVKLRSPKSELHQDRSSPPPPLPERTLESFFLADEDCMQAQSIETYSTSYPDTMENSTSSKQTLKTPGKSFTRSKSLKILRNMKKSICNSCPPNKPAESVQSNNSSSFLNFGFANRFSKPKGPRNPPPTWNI
B3 was tested, and the binding [5] was “binds” and the binding [6] was “binds”.
